{"source": "ChEMBL document CHEMBL4888484", "about": "“Replenishing the malaria drug discovery pipeline: Screening and hit evaluation of the MMV Hit Generation Library 1 (HGL1) against asexual blood stage Plasmodium falciparum ,using a nano luciferase reporter read-out” (2022)", "note": "Hit rate of the full screen: of about 150,000 compounds, about 540 (0.36%) showed an effect of 50% or more. The list shows a part of the results.", "data": [{"system": "Plasmodium falciparum", "assay": "Primary screen in NF54 nanoGlo assay, in single point, at 2uM, 72h; a lower Z score goes with more inhibition", "format": "functional, Erythrocyte", "details": "timepoint 72 hour", "units": {"% Inhibition": "%"}, "values": [{"smiles": "Cc1cc(-c2cn3cc(C(=O)N4CCCCC4)nc3c(=O)n2C)c(C)o1", "% Inhibition": 7, "Z score": -0.9}, {"smiles": "COC(=O)c1[nH]c(C)c(CN(C)C(=O)c2ccc(C(C)C)cc2)c1C", "% Inhibition": 0, "Z score": 0.04}, {"smiles": "Cc1cc(=O)c(C(=O)Nc2ccc(-n3ncc4ccccc43)cc2)c[nH]1", "% Inhibition": -9, "Z score": 1.42}, {"smiles": "Cn1cc(-c2noc(C3(c4cccc(Cl)c4)CCOCC3)n2)cn1", "% Inhibition": -9, "Z score": 1.24}, {"smiles": "CCCN(C(=O)c1cn2cccnc2n1)c1ccc(Cl)cc1", "% Inhibition": 3, "Z score": -0.39}, {"smiles": "CCC1(O)CCC(NC(=O)C23CCCN2CCC3)CC1", "note": "(stereo unspecified)", "% Inhibition": 7, "Z score": -1.01}, {"smiles": "O=C(C1CC(c2cc(F)ccc2F)=NO1)N1CCC2(CCOC2)C1", "note": "(stereo unspecified)", "% Inhibition": 1, "Z score": -0.24}, {"smiles": "CN1CCC(NC(=O)c2n[nH]c3c2CN(C(=O)c2cc(F)ccc2F)CC3)CC1", "% Inhibition": -7, "Z score": 1.14}, {"smiles": "COc1cc2cc(c1)C(=O)NCCCC(=O)N[C@H]1CN(Cc3cc(C4CC4)n[nH]3)CC[C@@H]1OCc1cccc(c1)O2", "% Inhibition": -10, "Z score": 1.94}, {"smiles": "CC(C)CC1CC(C(=O)N2CCC(OCC3CCCO3)CC2)CC(=O)N1", "note": "(stereo unspecified)", "% Inhibition": 1, "Z score": -0.12}, {"smiles": "O=C(Cc1n[nH]c(=O)c2cc(-c3ccc(F)cc3)nn12)NCCc1ccccc1", "% Inhibition": -3, "Z score": 0.44}, {"smiles": "CCOc1cc(C(=O)NCC(F)(F)F)ncn1", "% Inhibition": -7, "Z score": 1.41}, {"smiles": "O=C(NCCc1nc(O)cc(O)n1)[C@H]1CCOc2ccccc2C1", "% Inhibition": -9, "Z score": 1.43}, {"smiles": "CCCN(CC)c1ccc(C(=O)N2CCC[C@@H]2C(=O)O)cn1", "% Inhibition": -20, "Z score": 2.55}, {"smiles": "CO[C@H]1[C@@H]2CC[C@H]1CN(C(=O)Nc1c(C)cnn1Cc1cccc(C)c1)C2", "% Inhibition": -9, "Z score": 1.71}, {"smiles": "CC(C)C(=O)Nc1nc2n(n1)[C@H](c1ccc(Cl)cc1)CC(=O)N2", "% Inhibition": 4, "Z score": -0.55}, {"smiles": "COc1ccc(-c2cc(C(=O)N[C@H](C(=O)NCc3ccco3)C(C)C)no2)c(OC)c1", "% Inhibition": -20, "Z score": 2.92}, {"smiles": "Cc1oncc1CNC(=O)c1ccccc1F", "% Inhibition": -2, "Z score": 0.38}, {"smiles": "CCn1ccnc1CN(C)C1CCN(c2ncnc3sc(C)cc23)CC1", "% Inhibition": -3, "Z score": 0.26}, {"smiles": "Nc1nc(-c2cc3ccccc3o2)c2cn[nH]c2n1", "% Inhibition": 2, "Z score": -0.22}, {"smiles": "Cc1cc2c(NC[C@H]3CCOC(C)(C)C3)nccn2n1", "% Inhibition": 13, "Z score": -1.67}, {"smiles": "O=C(O)[C@H]1CCN(C(=O)C2(Cc3ccccc3)CCC2)C1", "% Inhibition": -5, "Z score": 0.76}, {"smiles": "O=C(NCCc1ccccn1)c1ccc(OCc2ccccc2)cc1", "% Inhibition": -3, "Z score": 0.39}, {"smiles": "Cn1ncn(CC(=O)N2CCN(c3cccc(C(F)(F)F)c3)CC2)c1=O", "% Inhibition": 8, "Z score": -0.96}, {"smiles": "CC(C)NC(=O)NCCNS(=O)(=O)N(C)C1CCCC1", "% Inhibition": -3, "Z score": 0.42}, {"smiles": "C[C@@H](C(=O)Nc1ccc2c(c1)OCCO2)n1nc(-c2ccccc2)c2cc(Cl)ccc21", "% Inhibition": -5, "Z score": 0.86}, {"smiles": "CCCN1CCn2cc(C(=O)NCc3cccc(OC)c3)nc2C1", "% Inhibition": 0, "Z score": -0.03}, {"smiles": "Cc1ccc2nc(-n3nc(C)c4c3NC(=O)C[C@@H]4c3c(C)sc4ccccc34)sc2c1", "% Inhibition": -3, "Z score": 0.31}, {"smiles": "Cc1cc(C)cc(OCC(=O)N2CCN(C(=O)c3cc[nH]c3C)CC2)c1", "% Inhibition": -5, "Z score": 0.68}, {"smiles": "CCN(CC)c1nc(-c2ccccc2)c2cc(Br)ccc2n1", "% Inhibition": -12, "Z score": 2.04}, {"smiles": "Cc1c(Cl)ccc2c(C(=O)NC3CCN(C)CC3)cc(-c3cccnc3)nc12", "% Inhibition": 20, "Z score": -2.75}, {"smiles": "COc1ccc2[nH]cc([C@H](CC(=O)NCc3ccccc3)c3cccc(C(F)(F)F)c3)c2c1", "% Inhibition": 4, "Z score": -0.45}, {"smiles": "CC(C)c1noc(CN[C@H](c2cccs2)C(C)C)n1", "% Inhibition": -6, "Z score": 0.69}, {"smiles": "CC(C)(C)c1nc(CN2CCC[C@H]2C(=O)O)cs1", "% Inhibition": -7, "Z score": 0.99}, {"smiles": "CN1CCN(S(=O)(=O)c2cnc3n2CCC3)c2ccc(Br)cc21", "% Inhibition": -13, "Z score": 1.16}, {"smiles": "Cc1ccc(O)c(NC(=O)[C@]2(c3ccccc3)CCCO2)n1", "% Inhibition": -8, "Z score": 1.42}, {"smiles": "CCOc1ccc(C(=O)Nc2cc(-c3noc(CC)n3)sc2C)cc1", "% Inhibition": 0, "Z score": -0.03}, {"smiles": "CCN(C(=O)c1cnc(-c2cccs2)nc1)[C@H]1CCS(=O)(=O)C1", "% Inhibition": -5, "Z score": 0.82}, {"smiles": "O=C(Cc1ccc2c(c1)OCO2)N1CCN(c2ccc3[nH]ncc3c2)C(=O)C1", "% Inhibition": -9, "Z score": 1.13}, {"smiles": "C[C@@H]1OCCO[C@@H]1C(=O)Nc1ccccc1-n1nccn1", "% Inhibition": -6, "Z score": 1.1}, {"smiles": "CC1(C)CN(C(=O)Cc2cnn(-c3ccccc3)n2)CCO1", "% Inhibition": -6, "Z score": 0.99}, {"smiles": "NCc1cn(C2CCN(C(=O)[C@H]3CCc4ccccc4C3)CC2)nn1", "% Inhibition": -12, "Z score": 1.13}, {"smiles": "O=C(Nc1cnc2c(c1)COCC2)c1ccc2ccccc2n1", "% Inhibition": -4, "Z score": 0.48}, {"smiles": "CCCCOc1c(Cl)cc(C(=O)N2CCC[C@@H](N)C2)cc1OCC", "% Inhibition": 0, "Z score": 0.03}, {"smiles": "CCC(NC(=O)c1csc(C2CC2)n1)C1CN(Cc2ccccc2)CCO1", "note": "(stereo unspecified)", "% Inhibition": 2, "Z score": -0.19}, {"smiles": "CN(CC(=O)N[C@H]1CCCc2ccccc21)S(=O)(=O)c1c[nH]c(C(=O)N2CCCCCC2)c1", "% Inhibition": -7, "Z score": 0.69}, {"smiles": "O=C1N(CC2CCC2)CCC[C@@]12CCN(Cc1coc(-c3ccccc3)n1)C2", "% Inhibition": -20, "Z score": 2.14}, {"smiles": "CCCC(=O)N1CCC(Cn2ccc3cccnc32)CC1", "% Inhibition": -14, "Z score": 2.46}, {"smiles": "CC(C)n1ccc(C(=O)N[C@@H](C)c2ccccn2)n1", "% Inhibition": -9, "Z score": 1.04}, {"smiles": "Cc1ccc(-c2ncc(C(=O)NCCC(C)C)c(C)n2)cc1", "% Inhibition": 5, "Z score": -0.53}, {"smiles": "CNc1cc(N2CCCN(C(=O)CC3CCCC3)CC2)ncn1", "% Inhibition": -8, "Z score": 1.05}, {"smiles": "Cc1cc(C(=O)N(C[C@H]2CCCO2)c2nc3c(Cl)cccc3s2)c(C)o1", "% Inhibition": 5, "Z score": -0.87}, {"smiles": "CCOC[C@@H]1CC(F)(F)CN1C1CN(C(=O)c2ccn(CC)n2)C1", "% Inhibition": -18, "Z score": 2.1}]}]}
